Measurements: paper PMC6602471
Some of the results follow. At the low end of the ranking the order means little.

Target: T1, ETS1 (UniProt P14921)
T1 sequence: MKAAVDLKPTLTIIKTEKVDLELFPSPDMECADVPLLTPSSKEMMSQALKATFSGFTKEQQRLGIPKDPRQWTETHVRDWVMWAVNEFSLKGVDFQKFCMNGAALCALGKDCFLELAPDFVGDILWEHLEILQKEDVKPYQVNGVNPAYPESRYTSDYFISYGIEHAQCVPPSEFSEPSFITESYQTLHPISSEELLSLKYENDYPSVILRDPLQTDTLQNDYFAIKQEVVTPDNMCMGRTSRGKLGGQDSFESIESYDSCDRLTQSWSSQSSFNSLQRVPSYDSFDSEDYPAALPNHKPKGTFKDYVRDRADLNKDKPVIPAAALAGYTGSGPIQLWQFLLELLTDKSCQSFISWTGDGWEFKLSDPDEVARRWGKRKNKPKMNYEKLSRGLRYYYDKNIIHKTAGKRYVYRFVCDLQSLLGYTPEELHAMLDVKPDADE
Assay: custom PBM
Conditions: custom protein-binding microarray; buffer, salt, pH and temperature not stated; high values mean tight binding; double strand, one strand shown

Row | Sequence | binding signal (log fluorescence intensity)
1 | TAAAGGGAAGACGGATGTGGTAGTTCCGGGTATTAAGTCTTGATTCGCTTGACGCTGCTG | 11.5
2 | CAGCATAGGACTTCTTCCCTGAAGCCATTGATAACCGTCTTGATTCGCTTGACGCTGCTG | 8.42
3 | CTGGGACTTGACCCGACTCTGCCACGTGGGTCGTTTGTCTTGATTCGCTTGACGCTGCTG | 8.49
4 | TACTGACTTATATATGCGAATGCAGATGAATAGACCGTCTTGATTCGCTTGACGCTGCTG | 8.15
5 | CAGCATAGGACTTCTTCCCTGAAGCAATTGATAGCCGTCTTGATTCGCTTGACGCTGCTG | 8.27
6 | TACTGACTTATATATGCGAATGCACAAGAATAGACCGTCTTGATTCGCTTGACGCTGCTG | 8.14
7 | TAAAGGCAAGACGGTTGTGGTAGTTCCGGGTATTAAGTCTTGATTCGCTTGACGCTGCTG | 8.32
8 | CGGAAGTGTCGTAAACGTCGAATATCCGGTTCTTCTGTCTTGATTCGCTTGACGCTGCTG | 12
9 | CTGGGACTTGACCCAACTCTGGCACGTGGGTCGTTTGTCTTGATTCGCTTGACGCTGCTG | 8.13
10 | CAGCATAGGACTTCTTCCCTGAAGAAATTGATAACCGTCTTGATTCGCTTGACGCTGCTG | 8.05
11 | CTGGGACTTGAACCAACTCTGCCACGTGGGTCGTTTGTCTTGATTCGCTTGACGCTGCTG | 8.34
12 | GTGTATAGGATCCCATCCACCACACGTGTTAAAATGGTCTTGATTCGCTTGACGCTGCTG | 8.29
13 | CTGGGACTTGACTCAACTCTGCCACGTGGGTCGTTTGTCTTGATTCGCTTGACGCTGCTG | 8.25
14 | CGGAAGTGCCGTAAACGTCGGATATCCGGTTCTTCTGTCTTGATTCGCTTGACGCTGCTG | 11.7
15 | TAAAGGGAAGACGGTTATGGTAGTTCCGGGTATTAAGTCTTGATTCGCTTGACGCTGCTG | 8.72
16 | CGGATGTGTCGTAAACGTCGGATATCCGGTTCTTCTGTCTTGATTCGCTTGACGCTGCTG | 11.8
17 | CAGCATAGGACTTCTTCCCTGAAGCAATTGATAAGCGTCTTGATTCGCTTGACGCTGCTG | 8.16
18 | GAGTAATTTCTGCCCTTATTCGCACGTGCCATAACAGTCTTGATTCGCTTGACGCTGCTG | 8.27
19 | GATTAAGTTCTGCCCTTATTCGCACGTGCCATAACAGTCTTGATTCGCTTGACGCTGCTG | 8.33
20 | CGGAAGTGTCGTAAACGTCGGATACCCGGTTCTTCTGTCTTGATTCGCTTGACGCTGCTG | 8.31
21 | GGAAAAAGGCCCAGGGTAACACCGAAAGTGGGCTTAGTCTTGATTCGCTTGACGCTGCTG | 8.21

Row | Sequence | binding signal (log fluorescence intensity)
22 | ATGGGACTTGACCCAACTCTGCCACGTGGGTCGTTTGTCTTGATTCGCTTGACGCTGCTG | 8.26
23 | TAAAGGGAAGACGGTTGTGGTAGTTCCGGCTATTAAGTCTTGATTCGCTTGACGCTGCTG | 9
24 | TGTCGGGTAAGGGAATGTAGATCACGTGAATTAAAAGTCTTGATTCGCTTGACGCTGCTG | 8.29
25 | TGTCGGGTAAGGGAACGTAGATCACGTGAATGAAAAGTCTTGATTCGCTTGACGCTGCTG | 8.19
26 | CGGAAGTGTCGTGAACGTCGGATATCCGGTTCTTCTGTCTTGATTCGCTTGACGCTGCTG | 11.7
27 | CAGCGTAGGACTTCTTCCCTGAAGCAATTGATAACCGTCTTGATTCGCTTGACGCTGCTG | 8.44
28 | CGGCATAGGACTTCTTCCCTGAAGCAATTGATAACCGTCTTGATTCGCTTGACGCTGCTG | 8.15
29 | TGTCGGGTAAGGGAATGTAGATCACGTCAATGAAAAGTCTTGATTCGCTTGACGCTGCTG | 8.14
30 | CAGCATAGGACTTCTTCCCTGAAGCAATTGGTAACCGTCTTGATTCGCTTGACGCTGCTG | 8.23
31 | TCCGGCTACCAGCTCCACCCACTTCAGGCCTTGTTGGTCTTGATTCGCTTGACGCTGCTG | 8.13
32 | CGTCGGGTAAGGGAATGTAGATCACGTGAATGAAAAGTCTTGATTCGCTTGACGCTGCTG | 8.15
33 | GTGTATAGGATCACATCCAACACACGTGTTAAAATGGTCTTGATTCGCTTGACGCTGCTG | 8.22
34 | GTGAATAGGATCCCATCCAACACACGTGTTAAAATGGTCTTGATTCGCTTGACGCTGCTG | 7.87
35 | TAAAGGGAAAACGGTTGTGGTAGTTCCGGGTATTAAGTCTTGATTCGCTTGACGCTGCTG | 8.51
36 | TAAATGGAAGACGGTTGTGGTAGTTCCGGGTATTAAGTCTTGATTCGCTTGACGCTGCTG | 8.49
37 | GGAAAAAGGCCCAGGGTAACACCGCAAGTGGGCTTAGTCTTGATTCGCTTGACGCTGCTG | 8.1
38 | TAAAGGGAAGACGGTTGGGGTAGTTCCGGGTATTAAGTCTTGATTCGCTTGACGCTGCTG | 8.62
39 | TCCGGCTACCAGCTCCACTCACTTCAGGCCTTGTAGGTCTTGATTCGCTTGACGCTGCTG | 8.4
40 | CAGGGACTTGACCCAACTCTGCCACGTGGGTCGTTTGTCTTGATTCGCTTGACGCTGCTG | 8.19
41 | GTGTATAGGATCCCATCCAACACACGTGTTAAGATGGTCTTGATTCGCTTGACGCTGCTG | 8.25
42 | GCTGCTGCGGTGCATACCCCACCGGATGCGACCCCGGTCTTGATTCGCTTGACGCTGCTG | 9.3

Row | Sequence | binding signal (log fluorescence intensity)
43 | CACAATTTTTACAGTAATGTATCACGCGTAACTCCTGTCTTGATTCGCTTGACGCTGCTG | 8.06
44 | TACTGACTTATAGATGCGAATGCACATGAATAGACCGTCTTGATTCGCTTGACGCTGCTG | 8.45
45 | TACTGACTTATCTATGCGAATGCACATGAATAGACCGTCTTGATTCGCTTGACGCTGCTG | 8.13
46 | TGTCGGGTAAGGGAATGTAGATCACGTGAATCAAAAGTCTTGATTCGCTTGACGCTGCTG | 8.24
47 | CACAATTTTTACAGAAATGTAGCACGCGTAACTCCTGTCTTGATTCGCTTGACGCTGCTG | 8.38
48 | CGGAAGTGTCGTAAACGTCGGATATCCGGTTGTTCTGTCTTGATTCGCTTGACGCTGCTG | 11.9
49 | CACGATTTTTACAGTAATGTAGCACGCGTAACTCCTGTCTTGATTCGCTTGACGCTGCTG | 8.33
50 | CTGGGACTTGACCCAACTCTGCCACGTGGATCGTTTGTCTTGATTCGCTTGACGCTGCTG | 8.03
51 | TCCGGCTACCGGCTCCACCCACTTCAGGCCTTGTAGGTCTTGATTCGCTTGACGCTGCTG | 8.32
52 | GGAAAAAGGCGCAGGGTAACACCGGAAGTGGGCTTAGTCTTGATTCGCTTGACGCTGCTG | 11.9
53 | GTGTATAGGATCCCATCCAACACACGTGGTAAAATGGTCTTGATTCGCTTGACGCTGCTG | 8.22
54 | GGAAAAAGGCCCAGGGTAACACCGGAAGTGGGCTTGGTCTTGATTCGCTTGACGCTGCTG | 11.8
55 | CTGGGACTTGACCCAACTCTGCCACCTGGGTCGTTTGTCTTGATTCGCTTGACGCTGCTG | 8.18
56 | CGGAAGTGTCGTAAACTTCGGATATCCGGTTCTTCTGTCTTGATTCGCTTGACGCTGCTG | 11.9
57 | GTGTATAGGATCCCATCCAACAGACGTGTTAAAATGGTCTTGATTCGCTTGACGCTGCTG | 8.07
58 | CACAATTTATACAGTAATGTAGCACGCGTAACTCCTGTCTTGATTCGCTTGACGCTGCTG | 8.23
59 | CGGAAGTGTCGTAAACGTCGGATAACCGGTTCTTCTGTCTTGATTCGCTTGACGCTGCTG | 8.34
60 | GATTAATTTCAGCCCTTATTCGCACGTGCCATAACAGTCTTGATTCGCTTGACGCTGCTG | 8.2
61 | CGGAAGTGTCGTAAACGTCGGATATCCGGTTCTTGTGTCTTGATTCGCTTGACGCTGCTG | 11.9
62 | CTGGGACTTGACCCAACTCTGCCACGTGGGTCGTTAGTCTTGATTCGCTTGACGCTGCTG | 8.07
63 | CAGCATAGGACTTCTTCCCTGAAGCATTTGATAACCGTCTTGATTCGCTTGACGCTGCTG | 8.31

Row | Sequence | binding signal (log fluorescence intensity)
64 | GATTAATCTCTGCCCTTATTCGCACGTGCCATAACAGTCTTGATTCGCTTGACGCTGCTG | 8.31
65 | TCCGGCTACCAGCTCCACCCACTTCAGGCCTTGTATGTCTTGATTCGCTTGACGCTGCTG | 8.26
66 | CTGGTACTTGACCCAACTCTGCCACGTGGGTCGTTTGTCTTGATTCGCTTGACGCTGCTG | 8.09
67 | TAAAGGGAAGACGGTTGTGGTACTTCCGGGTATTAAGTCTTGATTCGCTTGACGCTGCTG | 11.5
68 | GGAAAAAGACCCAGGGTAACACCGGAAGTGGGCTTAGTCTTGATTCGCTTGACGCTGCTG | 12
69 | GATTAATTTCTGCCCTTATTCGGACGTGCCATAACAGTCTTGATTCGCTTGACGCTGCTG | 8.29
70 | CACAATTTTTACAGTAATGTAGCACGCCTAACTCCTGTCTTGATTCGCTTGACGCTGCTG | 8.15
71 | TCCGGCTACCAGCTCCACCCACTTCACGCCTTGTAGGTCTTGATTCGCTTGACGCTGCTG | 8.08
72 | GGAAAAAGGCCCAGGGTAACACCAGAAGTGGGCTTAGTCTTGATTCGCTTGACGCTGCTG | 8.28
73 | CACAATTTTTACAGTAATGTAGCGCGCGTAACTCCTGTCTTGATTCGCTTGACGCTGCTG | 8.26
74 | GTGTATAGGATCCCATCCAACACACGTGTTAAAAAGGTCTTGATTCGCTTGACGCTGCTG | 8.07
75 | CGCAATTTTTACAGTAATGTAGCACGCGTAACTCCTGTCTTGATTCGCTTGACGCTGCTG | 8.34
76 | TGTCGGGTAAGGGAATGTAGATCACGTGAATAAAAAGTCTTGATTCGCTTGACGCTGCTG | 8.28
77 | TACTGACTTGTATATGCGAATGCACATGAATAGACCGTCTTGATTCGCTTGACGCTGCTG | 8.14
78 | GTGTATAGGATCCCATCCAACACACGTGTTAAAATAGTCTTGATTCGCTTGACGCTGCTG | 8.36
79 | TCCGGATACCAGCTCCACCCACTTCAGGCCTTGTAGGTCTTGATTCGCTTGACGCTGCTG | 8.36
80 | TGTCTGGTAAGGGAATGTAGATCACGTGAATGAAAAGTCTTGATTCGCTTGACGCTGCTG | 8.43
81 | GATTAATTTCTGCCCTTATACGCACGTGCCATAACAGTCTTGATTCGCTTGACGCTGCTG | 8.05
